From PubChem BioAssay AID743255 (National Center for Advancing Translational Sciences (NCATS), 2014)
Screen size: about 390,000 compounds; about 910 (0.23%) were called active. Roughly 5% stayed inconclusive and do not appear here. The call rests on the fitted dose curve; in most records, active means well fitted inhibition curve with a large enough effect; inconclusive means small, poorly fitted or top-dose-only effect; inactive means no such curve, though single readings can be large or run the other way. The list shows a part of the results, in another mix than the full data.

Biological target: Ubiquitin carboxyl-terminal hydrolase 1 (Homo sapiens) (UniProt O94782)
Experiment: Inhibitors of USP1/UAF1: Primary Screen; further: nearly all actives have a fitted effect of over 60% in size
Details: recombinant USP1/UAF1, Ub-Rhodamine cleavage fluorescence; activity change, negative = inhibition: at 57.1 µM (top of the series)
Procedure, shortened: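 USP1/UAF1 complex (1 nM) preincubated 15 min at room temperature with compound, then Ub-Rho substrate (150 nM final) added. Kinetic fluorescence at 480/540 nm over 6 reads at 60 s intervals; 50 mM HEPES pH 7.8, 0.5 mM EDTA, 0.1 mg/ml BSA, 1 mM TCEP, 0.01% Tween-20.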
On the % scale 0 is the no-effect control and ±100 the full control effect; potency means the concentration at half of the fitted maximal effect.

Chain of UniProt O94782 (O94782 whole entry, looked up): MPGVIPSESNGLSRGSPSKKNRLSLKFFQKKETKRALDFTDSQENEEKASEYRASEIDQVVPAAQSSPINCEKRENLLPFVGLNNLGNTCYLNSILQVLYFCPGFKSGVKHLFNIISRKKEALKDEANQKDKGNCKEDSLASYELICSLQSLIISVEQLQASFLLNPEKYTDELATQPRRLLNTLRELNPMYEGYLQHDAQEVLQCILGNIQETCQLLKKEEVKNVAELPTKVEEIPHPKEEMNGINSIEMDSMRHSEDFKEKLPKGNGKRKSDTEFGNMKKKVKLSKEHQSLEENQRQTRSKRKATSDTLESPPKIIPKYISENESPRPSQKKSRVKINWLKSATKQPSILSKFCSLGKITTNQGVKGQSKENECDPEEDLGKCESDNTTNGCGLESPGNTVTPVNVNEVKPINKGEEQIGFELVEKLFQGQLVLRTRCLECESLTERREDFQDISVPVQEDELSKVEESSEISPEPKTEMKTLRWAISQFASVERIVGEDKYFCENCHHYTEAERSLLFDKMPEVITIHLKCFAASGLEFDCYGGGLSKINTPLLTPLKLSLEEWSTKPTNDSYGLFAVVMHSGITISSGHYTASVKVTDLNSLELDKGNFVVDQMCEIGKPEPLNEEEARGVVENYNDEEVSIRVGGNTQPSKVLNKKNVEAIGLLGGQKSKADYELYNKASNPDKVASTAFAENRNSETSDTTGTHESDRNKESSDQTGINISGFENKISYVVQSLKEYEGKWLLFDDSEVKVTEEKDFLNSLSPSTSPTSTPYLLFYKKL

Activity change, negative = inhibition, inactive:
COC(=O)C1CCN(c2nc3ccccc3nc2C(C#N)C(=O)OCC(C)C)CC1 (configuration not stated) 28.6%
C[C@H]1NC(=O)[C@@]2(C)[C@@H](c3ccccc3)[C@H]3COc4ccccc4[C@H]3N2C1=O -8.47%
CCOC(=O)[C@@H]1[C@H]2COc3ccccc3[C@H]2N2C(=O)N(c3ccc(Cl)cc3)C(=O)[C@@]12C -20.2%
O=C(CSCc1ccc(F)cc1)NCc1ccc(F)cc1 -7.47%
Cc1cc(NC(=O)/C(C#N)=C/c2ccc(-c3ccc(SC(F)F)cc3)o2)n(-c2ccccc2)n1 -24.4%
C=CCC[C@@H](Cc1ccc(F)cc1)C(=O)OC[C@H](Cc1c[nH]c2ccccc12)NC(=O)[C@@H](CC=C)CC(=O)NCCO -24.1%
COc1ccc(N2CCN(C(=O)C3CCCN(S(=O)(=O)c4ccc5c(c4)oc(=O)n5C)C3)CC2)cc1 (configuration not stated) -9.55%
CSc1ccc(CCNC(=O)Cn2ncc3c([nH]c4ccccc43)c2=O)cc1 -19.4%
C[C@@H]1CN([C@@H](C)CO)C(=O)CCCn2nncc2CO[C@H]1CN(C)S(=O)(=O)c1ccccc1C#N -23.1%
CC(C)(C)OC(=O)C[C@@H]1C/C=C\C[C@H](CC(=O)N[C@H](CO)Cc2ccccc2)C(=O)N[C@H](C(C)(C)C)COC1=O -26.6%
COc1ccc(NC(=O)CC2C(=O)N(c3cccc(C)c3)C(=O)N2C2CCCCC2)cc1 (configuration not stated) -19.2%
CC(C)(C)OC(=O)C[C@H]1C/C=C\C[C@@H](CC(=O)N[C@@H](CO)Cc2ccccc2)C(=O)N2CCC[C@@H]2COC1=O -26.2%
C[C@@H]1COC(=O)[C@H](NC(=O)OCC2c3ccccc3-c3ccccc32)C/C=C\C[C@@H](CC(=O)N[C@H](CO)Cc2ccccc2)C(=O)N1 -26.3%
CCOC(=O)C1CCCN(S(=O)(=O)c2ccc(F)c(C(=O)Nc3ccc(F)c(F)c3)c2)C1 (configuration not stated) -19.1%
Cc1cccc2nc(-c3ccco3)c(Nc3ccc4c(c3)OCO4)n12 -21.6%
C=CCNCc1ccc(C(=O)NCCCCCCC)cc1[N+](=O)[O-] 27.7%
CC(C)(C)c1ccc(NC(=O)C2CCCN(c3cnccn3)C2)cc1 (configuration not stated) -12.5%
CC(C)(C)OC(=O)C[C@H]1C/C=C\C[C@H](CC(=O)N[C@H](CO)Cc2ccccc2)C(=O)N2CCC[C@H]2COC1=O -8.28%
COc1ccc(NS(=O)(=O)c2cccc(C(=O)N/N=C(/C)c3ccc(-n4ccnc4)cc3)c2)cc1 -21.2%
CCOC(=O)c1ccc(NS(=O)(=O)c2ccc3oc(=O)[nH]c3c2)cc1 -20.4%
C[C@H](CO)N1C[C@H](C)[C@@H](CN(C)C(=O)CN2CCOCC2)Oc2cc(Br)ccc2S1(=O)=O -31.1%
CCN(Cc1ccccc1)C(=O)c1nn(-c2ccc(OC)cc2)c(=O)c2c1c1ccccc1n2C -20.9%
Cc1cccc(NC(=O)c2ccc(F)c(S(=O)(=O)N3CCC4(CC3)OCCO4)c2)c1 -23.9%
CCn1cc(C(=O)NCCCN2CCCC(C)C2)c(=O)c2cc(S(=O)(=O)N(C)C3CCCCC3)ccc21 (configuration not stated) -8.58%
CC(=O)NS(=O)(=O)c1ccc(N)cc1 -28.6%
Cc1c(C(=O)Nc2ccc(F)c(F)c2)oc2ccc(S(=O)(=O)N3CCCCC3)cc12 -2.9%
COc1ccc(-c2ccc3c(=O)cc(-c4ccsc4)oc3c2)cn1 32.8%
CN(C)c1ccc(/C=C(\NC(=O)c2ccccc2)C(=O)NCCCn2ccnc2)cc1 -18.4%
COCCCNC(=O)CN1C(=O)COc2ccc(S(=O)(=O)N3CCCCCC3)cc21 -20.8%
O=C(N/C(=C/c1cccc(Br)c1)C(=O)N1CCOCC1)c1ccco1 -7.24%
CCn1c(C(=O)N2CCCC(C(=O)N3CCN(c4ccccc4)CC3)C2)cc2sccc21 (configuration not stated) 405%
O=C(O)C1=C[C@@H](C2CC2)C[C@@H](OCCCCO)O1 -19.6%
C=CCC[C@H](Cc1ccc(F)cc1)C(=O)OC[C@@H](Cc1c[nH]c2ccccc12)NC(=O)[C@H](CC=C)CC(=O)N(CCO)Cc1ccccc1 -20.7%
CCn1cc(C(=O)N2CCN(c3ccc(OC)cc3)CC2)c2cc(OC)c(OC)cc2c1=O -23.2%
CCOC(=O)N1CCN(S(=O)(=O)c2ccc(F)cc2)CC1 -4.83%
C[C@@H]1CN([C@H](C)CO)C(=O)c2cc(Br)cnc2O[C@H]1CN(C)C(=O)Nc1ccc2c(c1)OCO2 -16.6%
CC1=C/C(=C(/c2cc(C)c(O)c(Br)c2)c2ccccc2S(=O)(=O)O)C=C(Br)C1=O -21.6%
CCCCN1CC(CO)Oc2cccc(F)c2S1(=O)=O (configuration not stated) -25.1%
O=C(COc1ccccc1)Nc1nnc(S(=O)(=O)N2CCCCCC2)s1 -1.64%
C[C@@H]1CN([C@H](C)CO)C(=O)CCCn2nncc2CO[C@@H]1CN(C)C(=O)NC1CCCCC1 -15.2%
CCc1cccc2cc3c(N)c(C(=O)Nc4ccc(S(=O)(=O)N5CCCC5)cc4)sc3nc12 220%
C[C@H]1CN(S(=O)(=O)C(C)(C)C)[C@H](CCO)/C1=C\c1ccccc1 -0.728%
C[C@H]1CN([C@@H](C)CO)C(=O)CCCn2cc(nn2)CO[C@@H]1CN(C)S(=O)(=O)c1ccc(Oc2ccccc2)nc1 -5%
Cn1c(O)c(N=Nc2ccc(F)cc2)c2ccccc21 40%
CC1=C(C(=O)OC(C)C)C(c2ccc(Cl)cc2)n2c(s/c(=C\c3ccc(OCC(=O)O)cc3)c2=O)=N1 (configuration not stated) 34.1%
CS(=O)(=O)/C(C#N)=C/c1c(-c2ccccc2)nc2n1CCS2 48.7%
C[C@@H]1CN([C@@H](C)CO)S(=O)(=O)c2ccc(Br)cc2O[C@H]1CN(C)Cc1ccccc1F -7.87%
C[C@H](CO)N1C[C@H](C)[C@@H](CN(C)S(=O)(=O)c2ccccc2F)OCc2cnnn2CCCC1=O 8.6%
O=C(C[C@H]1C/C=C\C[C@H](NC(=O)OCC2c3ccccc3-c3ccccc32)C(=O)OC[C@H]2CCCN2C1=O)NCCO 7.65%
Cc1ccc(CNC(=O)Cn2cccc2C(=O)c2ccccc2C)cc1 -26.1%
COc1ccc(/C=C2/C(=O)N(CC3CCCO3)C(=S)N2C)c(OC)c1 (configuration not stated) 56.1%
Cc1ccc([C@H]2C[C@@H](O)[C@H](n3cc(C4CC4)nn3)CN2Cc2cccs2)cc1 -9.76%
C=CC[C@@H](CC(=O)N[C@H](CO)Cc1ccccc1)C(=O)N[C@@H](COC(=O)[C@@H](CC=C)CC(=O)OC(C)(C)C)Cc1ccccc1 -9.26%
NCCCC[C@@H]1NC(=O)[C@H](CCC(=O)O)NC(=O)c2cc([N+](=O)[O-])cc(I)c2OCC[C@@H](C(N)=O)NC1=O -10.8%
Nc1c2ccccc2nc2ccccc12 5.74%
N[C@@H](Cc1cc(I)c(Oc2ccc(O)c(I)c2)c(I)c1)C(=O)O 12%
COc1ccc(Cn2cc3c(-c4ccc(F)cc4)nnc-3c3cc(OC)c(OC)cc32)cc1 114%
Cn1nc(C(F)(F)F)cc1-c1ccc(/C=C(\C#N)C(=O)c2ccccc2)s1 44.2%
COCCCNC(=O)CCCn1c(SCC(=O)c2ccc(Br)cc2)nc2c(sc3ccccc32)c1=O 27%
O=C1N[C@@H](Cc2ccccc2)C(=O)N2[C@@H]3N(S(=O)(=O)c4ccc(F)cc4)c4ccccc4[C@]3(Br)C[C@@H]12 21.5%
CCO[C@@H]1OC(C(N)=O)=C[C@H](C2CC2)[C@H]1CCCO -22.6%
COc1ccc(S(=O)(=O)N(C)C[C@H]2OCc3cnnn3CCCC(=O)N([C@H](C)CO)C[C@H]2C)cc1 7.19%
O=C(c1cccs1)N1C[C@@H](n2cc(-c3ccc(F)cc3)nn2)[C@H](O)C[C@@H]1c1ccc(Cl)cc1 -25.5%
COc1ccc(CC(=O)Nc2c(C(=O)N3CCN(c4ccccc4)CC3)oc3ccccc23)cc1OC -26.4%
C[C@@H]1CN([C@H](C)CO)C(=O)CCCn2nncc2CO[C@H]1CN(C)C(=O)C1CCCCC1 -14.2%
C[C@H](CO)N1C[C@H](C)[C@H](CN(C)S(=O)(=O)c2ccc3c(c2)OCCCO3)OCc2cnnn2CCCC1=O -0.395%
C[C@H](CO)N1C[C@H](C)[C@@H](CN(C)Cc2ccc(C(=O)O)cc2)OCc2cnnn2CCCC1=O 1.38%
CC(C)(C)OC(=O)C[C@H]1C/C=C\C[C@@H](CC(=O)N[C@H](CO)Cc2ccccc2)C(=O)NCCOC1=O -22.9%
O=C(OCCNc1ccc(C(F)(F)F)cc1[N+](=O)[O-])c1cc2ccccc2oc1=O 116%
C=CC[C@@H](CC(=O)N(CCO)Cc1ccccc1)C(=O)N[C@H](COC(=O)[C@@H](CC=C)Cc1ccc(F)cc1)C(C)(C)C -8.3%

Potency, active:
Nc1nnc2c(n1)CCCC2 15.8 µM
O=C(Cc1ccccc1)Nn1c(O)c(/C=C2\C=Nc3ccccc32)sc1=S 31.6 µM
COC(CNC(=O)c1ccc2c3c(onc13)-c1ccccc1C2=O)OC 17.8 µM
COc1ccc(-n2c(O)c(/C=N/NS(=O)(=O)c3ccc(C)c([N+](=O)[O-])c3)c3ccccc3c2=O)cc1OC 25.1 µM
NC(=O)c1ccc(N=C2C(=O)Nc3ccc([N+](=O)[O-])cc32)cc1 14.1 µM
Cc1cc(C)c(S(=O)(=O)/N=C2/C=C(SCC(=O)O)C(=O)c3ccccc32)cc1C 25.1 µM
CN(C)c1ccc(/C=C(\C#N)C(=O)c2ccccc2)cc1 14.1 µM
COc1cccc2c1C(=O)c1c(O)c3c(c(O)c1C2=O)C[C@@](O)(C(C)=O)C[C@@H]3O[C@H]1C[C@H](N)[C@H](O)[C@H](C)O1 5.62 µM
OCCN(CCO)c1nc(N2CCCCC2)c2nc(N(CCO)CCO)nc(N3CCCCC3)c2n1 28.2 µM
O=C1Cc2ccccc2C(=O)N1Cc1ccccc1 3.16 µM
COCCCNc1c2c3c(cccc3[nH]c1=O)C(=O)c1ccccc1-2 4.47 µM
COC1=CC(=O)c2ccccc2C1=O 12.6 µM
